# Experimental data taken from the antibiotic and cytotoxicity screens of Wong et al. (2023).
# The list shows a part of the results.
# What was measured:
# HSkMC = human skeletal muscle cells; assay: cytotoxicity call (relative viability < 0.9); conditions: 10 µM
# HepG2 = assay: cytotoxicity call (relative viability < 0.9); conditions: 10 µM
# S. aureus RN4220 = assay: growth inhibition call (relative growth <= 0.2); conditions: 50 µM
SMILES,cytotoxicity call (HSkMC),cytotoxicity call (HepG2),growth inhibition call (S. aureus RN4220)
Cc1noc(C)c1NC(=O)Nc1ccc2c(c1)C(=O)N([C@H](C)CO)C[C@H](C)[C@@H](CN(C)C(=O)Nc1ccc(F)cc1)OCCCC[C@@H](C)O2,inactive,inactive,inactive
CN1CCN(C(=O)C[C@H]2CC[C@@H]3[C@H](COc4ccc(NC(=O)c5cccs5)cc4C(=O)N3C)O2)CC1,inactive,inactive,inactive
C[C@H]1CN([C@@H](C)CO)C(=O)c2cccc(NC(=O)Nc3ccc(C(F)(F)F)cc3)c2O[C@H]1CN(C)S(=O)(=O)c1ccc(Cl)cc1,active,active,inactive
C[C@@H]1CN([C@H](C)CO)C(=O)Cc2cc(NC(=O)Nc3ccccc3)ccc2O[C@H]1CN(C)Cc1ccc(C(=O)Nc2ccccc2N)cc1,inactive,inactive,inactive
C=CCNC(=O)[C@H]1[C@@H]2C(=O)O[C@@H](c3ccccc3)[C@@H](c3ccccc3)N2[C@@H](c2ccc(O)cc2)[C@]12C(=O)N(C(=O)OCCOC)c1ccc(C#CC3(O)CCCCCC3)cc12,inactive,inactive,inactive
CN(C)CCCNC(=O)C[C@@H]1C=C[C@@H](NS(=O)(=O)c2ccccc2)[C@H](CO)O1,inactive,inactive,inactive
CCC(=O)N(C)C[C@@H]1Oc2ncc(C#C[C@@H](C)O)cc2C(=O)N([C@@H](C)CO)C[C@H]1C,inactive,inactive,inactive
C[C@H]1CN([C@@H](C)CO)C(=O)c2cc(NC(=O)CCCN(C)C)ccc2O[C@H]1CN(C)Cc1ccncc1,inactive,inactive,inactive
Cl.NC(COP(=O)(O)O)C(=O)O (centres undefined),inactive,inactive,inactive
N=C(N=C(N)N)NCCc1ccccc1,inactive,active,inactive
CCCCCOc1ccc(-c2cc(-c3ccc(C(=O)N[C@H]4C[C@@H](O)[C@@H](O)NC(=O)[C@H]5[C@@H](O)[C@@H](C)CN5C(=O)[C@H]([C@@H](O)CC(N)=O)NC(=O)[C@H]([C@@H](O)[C@@H](O)c5ccc(O)c(OS(=O)(=O)O)c5)NC(=O)[C@H]5C[C@@H](O)CN5C(=O)[C@H]([C@@H](C)O)NC4=O)cc3)no2)cc1,inactive,inactive,inactive
C[C@@H]1CN([C@@H](C)CO)C(=O)c2cc(NC(=O)C3CCCCC3)ccc2O[C@@H](C)CCCCO[C@H]1CN(C)C(=O)c1ccncc1,inactive,inactive,inactive
COc1ccc(NC(=O)N(C)C[C@H]2OCCCC[C@@H](C)Oc3ccc(NC(=O)C4CCCCC4)cc3C(=O)N([C@H](C)CO)C[C@@H]2C)cc1,inactive,inactive,inactive
CCOC(=O)C(CCc1ccccc1)NC(C)C(=O)N1CCCC1C(=O)O.O=C(O)C=CC(=O)O (centres undefined),inactive,inactive,inactive
Cc1ccc(S(=O)(=O)N(C)C[C@@H]2Oc3c(NC(=O)c4ccncc4)cccc3C(=O)N([C@H](C)CO)C[C@H]2C)cc1,inactive,inactive,inactive
COc1ccc(CNC(=O)N(C)C[C@H]2OCc3ccccc3-c3c(n(C)c4ccccc34)C(=O)N([C@@H](C)CO)C[C@@H]2C)cc1,inactive,inactive,inactive
Cc1cc(C(=O)Nc2cccc3c2O[C@@H](CN(C)S(=O)(=O)c2ccc(F)cc2)[C@H](C)CN([C@@H](C)CO)C3=O)n(C)n1,inactive,inactive,inactive
C[C@@H]1CN([C@@H](C)CO)C(=O)c2cc(NS(=O)(=O)c3ccc(Cl)cc3)ccc2O[C@@H](C)CCCCO[C@@H]1CN(C)C(=O)Nc1ccc2c(c1)OCO2,inactive,inactive,inactive
C[C@H](CO)N1C[C@H](C)[C@@H](CN(C)C(=O)Cc2ccccc2)OCCCC[C@H](C)Oc2ccc(NC(=O)Nc3cccc4ccccc34)cc2C1=O,inactive,inactive,inactive
Cc1ccc(S(=O)(=O)N(C)C[C@@H]2OCCCC[C@@H](C)Oc3ccc(NC(=O)Nc4cccc5ccccc45)cc3C(=O)N([C@H](C)CO)C[C@H]2C)cc1,inactive,inactive,inactive
C[C@H](CO)N1C[C@H](C)[C@H](CN(C)S(C)(=O)=O)Oc2c(NC(=O)NC3CCCCC3)cccc2C1=O,inactive,inactive,inactive
Nc1nc(=O)c2c(CCc3ccc(C(=O)NC(CCC(=O)[O-])C(=O)[O-])cc3)c[nH]c2[nH]1.[Na+].[Na+] (centres undefined),inactive,inactive,inactive
CC(=O)c1ccc[nH]1,inactive,inactive,inactive
